Results as given in the RNAGym collection of RNA variant scans (doi:10.7554/elife.90254).
Read counts are not given, so values of variants with three or more changes are uncertain.

B1: LINE1-mini (parent)
chain: GGCAGAGCUCAACACAGCGUGGCAAAGUGGCUGUGGCUAGACUGCC

Variants of: B1
Assay: self-cleavage, relative activity (ratio to wild type); higher = more cleavage; in vitro, sequencing; the parent is a self-cleaving ribozyme

Variant	self-cleavage
G1C U9A A39C C46U	0.01
U20C G22A G36U C37U	0
C15A C23A C45U C46U	0.48
A4U A25U C31G G40A	0.02
G7U A11U U38A	0.02
G7U C10A C18G	0.05
G2A A6C G21U G27U	1.71
G1C G21A C23A G29U	0.05
C10A G21C C23A	0.04
G2A A25G U43A	0.53
U20A U28A C37G	0
G7U C10A C45U	0.01
C13A G33A U38A	0.02
A4G C8G G29U G35U	0.04
C3A U34A A41U	0.2
C3G C10G C13G	0.01
A14C G21U C37A A41U	0.03
C3G A39U C45G	0.1
G5A U9A G17C A24G G33A	0.19
A24G A39G G40C	0.03
U28A G29U U32A	0.27

Variant	self-cleavage
C15U G30U C46G	0.22
G2A C8U C13A G22C U32G U38A	0.02
C8A A11U G30C U38G	0.03
G5C C13U U32G	0.18
G30A C37A A41G	0.01
G1U A4C G5A A24C U28G	0.05
C3A C13G U34G	0.04
G1U C8G G35U G36A	0.04
G5C U9A U20C U38C	0.09
G17C G21U G29C	0.61
G7U A26G G33U	0.01
G19A U20C G29A C45A	0.08
C10A U20C A24C A26C	0.4
G2C U28G G35A G44A	0.03
G2C U9C A25C	0.02
G2U U38C C42G	0.04
G17A C45G C46G	0.02
U20G G22A G33C	0.2
G2C A16C G29C G33C	0.02
G2C C18U G29U G36U C46U	0.52
G1C A16U U34A G35U	0

Variant	self-cleavage
A26G G33C U34A U38C G44U	0.02
A12G G35U U38A	0.02
A6G C10U C13A A14U C31G	0.06
G2C G7A U9C U32A C37U	0.02
A12G C13A C42U G44U	0.05
G1A G7A G21A	1.8
C10U U34G U38C C45A	0.02
U9C G19A U38A U43C	0.01
C10A C18A C37U C45A	0
A25U U28C U34C	0.23
A4C C18A G33U C37A G40A A41G	0.01
G2A A11G U20A A26G G40U A41C	0.01
C13G A16C C18A G29A G35A	0.16
A4G C15G G22U C37U	0.02
G2C A4C G17U	0.51
U9C A11C U32C G40U	0.04
A6C A14C G19C A26C C42U	0
C15G G29U G36C	0.02
A4U C15U G40A	0.04
G5C C15A U20C C37G C42U	0.02
C15U A25C C31G A41G C45G	0.08

Variant	self-cleavage
C10U U32A C45G	0.05
C23U A24U A26C C45A	1.01
A4C G29C C31U	0.01
C15U C18A A26G C45G	0
U9A G17A A24C G33A C45U C46U	0.09
C8A A25G G33C U34A	0.08
G2A C3G A39G	0.2
U32A U34G A39G C42U	0.01
A26C G27A U34C G36C	0.02
A11U A12U U34C G35U	0
C3G A4C G30U A39U	0.28
G5U A14U G17C U43C	0.04
G1C A16C G27U U28G	0.03
A4G A6C G27C	0.03
G2U G40A C42G	0.03
G5U C10G G21U	0.01
C31G G35C U43C	0.07
C8U A11U A26U	0.03
G22C C23U U28C	0.31
C15A A24C U43C	0
